Measured values as given in PubChem BioAssay AID463173 (ICCB-Longwood Screening Facility, Harvard Medical School, 2010).
About 4,300 (8.3%) of roughly 52,000 compounds were called active. No stated cut-off is given here; in the data, active means survival mostly below about 52% (no sharp cut-off); inactive means mostly above about 56%. The list shows a part of the results.

The molecules below were run on DeltatarO mutant (assay: S. aureus survival, RN4220 and DeltatarO strains – OD600, teichoic acid synthesis inhibitors, primary screen (AID 463173)). Details: S. aureus RN4220 wild type/DeltatarO growth, OD600, 18 h, active compounds read low, screened at 18.75 µg/mL (by protocol).

| Structure (SMILES) | survival |
| --- | --- |
| Cc1ccc(N2CC(NC(=O)c3ccc4c(c3)OCO4)CC2=O)cc1 (centres undefined) | inactive: 96% |
| Cc1ccc(-n2c(SCC(=O)Nc3cccc(Cl)c3)nc3n[nH]c(C)c3c2=N)cc1 | inactive: 88% |
| Cc1ccccc1NC(=O)Cn1nc(-c2ccc(F)cc2)c2cnc3ccccc3c21 | active: 25% |
| CC(=O)N1CCCc2ccc(NS(=O)(=O)c3ccc(F)cc3F)cc21 | inactive: 74% |
| Cc1ccc(Cl)cc1N1CCN(CCNC(=O)Nc2ccc(Cl)cc2)CC1 | active: -4% |
| COc1ccc(N2CCN(C(=O)c3nc(-c4ccc(Cl)cc4)n4c3CCCCC4)CC2)cc1 | inactive: 81% |
| CCOC(=O)c1c(-n2cnnn2)sc(C)c1C | inactive: 95% |
| CCOc1ccc(CNC(=O)c2ccc(CS(=O)c3ccccc3)o2)cc1 (centres undefined) | inactive: 66% |
| O=C(C1CCN(S(=O)(=O)c2cccc3nonc23)CC1)N1CCN(c2ccccc2)CC1 | inactive: 72% |
| COc1ccc(NC(=O)c2nnn(Cc3ccc(Br)cc3F)c2N)c(OC)c1 | inactive: 68% |
| COc1ccccc1NC(=O)c1c(NC(=O)c2ccccc2F)sc2c1CCC2 | inactive: 136% |
| COc1ccc(Cn2ccc3nc(C)c(C(=O)Nc4ccc(C)c(F)c4)cc3c2=O)cc1 | inactive: 55% |
| Cc1ccc(-c2cc(C(=O)NCc3ccccc3)c3c(-c4ccc(C)cc4)[nH]nc3n2)cc1 | inactive: 86% |
| COc1ccc(C(c2nnnn2CC2CCCO2)N2CCN(c3ccc(F)cc3)CC2)cc1OC (centres undefined) | inactive: 103% |
| CCOc1ccc(-c2c(C)nn3c(C)c(C(=O)NCc4ccc(C)o4)cnc23)cc1OCC | inactive: 77% |
| Cc1cc(N2CCC(C)CC2)nc2ccc(NC(=O)/C=C/c3cccc(Cl)c3)cc12 | active: 53% |
| CC(C)c1ccc(Nc2c(-c3ccccc3O)nc3cnccn23)cc1 | inactive: 55% |
| CCc1ccccc1NC(=O)CSc1nnc(CC)c(CC)n1 | inactive: 80% |
| CSc1ccc(CNC(=O)c2cc3c(=O)n(Cc4ccco4)ccc3nc2C)cc1 | inactive: 94% |
| Cc1ccc2nc(NC(=O)c3cc(=O)c4cc(Cl)ccc4o3)sc2c1 | inactive: 47% |
| Cn1c(Oc2ccc(F)cc2)nc2c1c(=O)n(Cc1ccccc1Cl)c(=O)n2C | inactive: 78% |
| O=C(NCCc1ccc(Cl)cc1)c1ccc(CS(=O)(=O)Cc2ccccc2F)o1 | active: -1% |
| CC(=O)N1CCc2c(sc3c2c(=O)n(-c2ccc(C)cc2)c(=O)n3CC(=O)Nc2ccccc2)C1 | inactive: 99% |

| Structure (SMILES) | survival |
| --- | --- |
| Cc1ccc2c(c1)N(C(=O)N1CCC(C(=O)NCc3ccco3)CC1)CC(C)O2 (centres undefined) | inactive: 76% |
| Nc1nc(NC(=O)CCC(=O)O)nn1-c1ccccc1 | inactive: 53% |
| CCCCOC(=O)c1ccc(NC(=O)Cc2coc3ccc(C(C)C)cc23)cc1 | inactive: 69% |
| CCSc1nc2c(c(=O)[nH]c(=O)n2C)n1CC(O)COc1ccc(Cl)cc1 (centres undefined) | inactive: 167% |
| COc1ccc(N2CCN(C(=O)c3ccc4c(c3)CCN4S(C)(=O)=O)CC2)cc1 | inactive: 57% |
| Cc1c(Cl)cccc1NC(=O)Cn1nc(C)c2sc3ccccc3c2c1=O | inactive: 73% |
| Cc1ccc(C)c(S(=O)(=O)c2nnn3c2nc(Nc2ccc(F)c(Cl)c2)c2sccc23)c1 | inactive: 71% |
| Cc1nc(SCC(=O)Nc2ccc(Br)cc2)[nH]c(=O)c1Cc1ccccc1 | inactive: 59% |
| CSc1ncc(C(=O)N2CCN(c3ccc(F)cc3)CC2)c(C)n1 | inactive: 69% |
| COc1cccc(-c2nn(C)c3sc(C(=O)N4CCN(c5cccc(C)c5)C(C)C4)cc23)c1 (centres undefined) | inactive: 66% |
| CCc1nnc(SCc2nc(-c3ccc(OC)cc3)oc2C)c2cc3sccc3n12 | inactive: 83% |
| COc1ccccc1CCNC(=O)Cn1ccc2cc(S(=O)(=O)N3CCCCCC3)ccc21 | inactive: 87% |
| Cc1ccc(C)c(N2CCN(C(=O)c3cc(S(=O)(=O)N4CCCC4)cn3C)CC2)c1 | inactive: 64% |
| CCOC(=O)C1CCC(CN(Cc2c(Cl)cccc2Cl)S(=O)(=O)c2ccc(F)cc2)CC1 (centres undefined) | inactive: 58% |
| COc1cc(C(=O)N2CCc3c([nH]c4ccccc34)C2c2ccccc2)cc(OC)c1OC (centres undefined) | inactive: 68% |
| Cc1cccc(C(=O)Nc2nc(-c3ccc(Br)cc3)ns2)c1 | inactive: 74% |
| CC(=O)N1CCC2(CC1)OC(=O)C(C)=C2C(=O)Nc1ccccc1C(F)(F)F | inactive: 81% |
| CCOC(=O)C1CCN(C(=O)Cn2ncc3c([nH]c4ccc(C)cc43)c2=O)CC1 | inactive: 72% |
| Cc1cccc(N(CC(=O)NCCSc2ccc(Cl)cc2)S(=O)(=O)c2ccccc2)c1C | inactive: 49% |
| COc1ccccc1OCCn1c(-c2ccc(Br)cc2)nc2ccccc2c1=O | inactive: 71% |
| CC1CCCCN1Cc1c(C#N)c2ccccc2n1C (centres undefined) | inactive: 89% |
| Cc1ccc(C(=O)Nc2ccc(Cl)c(-c3nc4ncccc4o3)c2)c(C)c1 | inactive: 50% |
| Cc1ccccc1OCc1ccc(-c2nc(C#N)c(NCCCN(C)C)o2)o1 | inactive: 59% |

| Structure (SMILES) | survival |
| --- | --- |
| COc1cccc(-c2nc(-c3ccc(-c4ccccc4)nc3OC)no2)c1 | active: 10% |
| CCOC(=O)C1CCN(C(c2ccccc2OC)c2c(O)cc(C)n(CCOC)c2=O)CC1 (centres undefined) | inactive: 89% |
| O=C(Nc1ccc(F)cc1)[C@H](Cc1ccccc1)N1Cc2ccccc2C1=O | inactive: 89% |
| Cn1nnnc1SCCCNCc1cccc(OCc2ccc(Cl)cc2)c1 | active: -3% |
| CC(C)CCOc1ccc(C(=O)Nc2sc3c(c2C#N)CCCCC3)cc1 | inactive: 127% |
| Cc1ccc(CCNC(=O)CN(c2ccc(C)cc2)S(=O)(=O)c2c(C)noc2C)cc1 | inactive: 71% |
| Cc1c(Cl)ccc2sc(N3CCN(C(=O)c4ccco4)CC3)nc12 | inactive: 69% |
| COc1ccccc1CNc1ccc(-c2nc(C(C)C)no2)cc1[N+](=O)[O-] | inactive: 55% |
| CCOc1ccc(CNC(=O)c2cc3oc4ccccc4c3n2C)cc1 | inactive: 95% |
| Cc1ccc(C)c(NC(=O)Cn2cc(C(=O)c3ccncc3)c(=O)c3cc(F)ccc32)c1 | inactive: 89% |
| COc1ccc(NC(=O)Cn2cnc3sc(C)c(S(=O)(=O)N4CCN(C)CC4)c3c2=O)cc1OC | inactive: 167% |
| CN(C)c1ccc(CNc2nc(-c3ccco3)nn2S(=O)(=O)c2ccc3ccccc3c2)cc1 | inactive: 69% |
| O=C(CSc1nc2c(c(=O)[nH]1)CCC2)Nc1ccccc1F | inactive: 73% |
| Cc1cc(C)c2c(CC(=O)N(Cc3ccc(N(C)C)cc3)Cc3ccco3)coc2c1 | active: 42% |
| COc1ccccc1OCCn1cc(C(=O)c2cccs2)c2ccccc21 | inactive: 142% |
| O=C(c1cc2c(=O)oc3ccccc3c2s1)N1CCN(c2cccc(Cl)c2)CC1 | inactive: 170% |
| COc1ccc(Cl)cc1NC(=O)Cn1ccn(Cc2ccc(C)cc2)c(=O)c1=O | inactive: 47% |
| CCOC(=O)N1CCN(C(=O)CN(c2cccc(Cl)c2C)S(=O)(=O)c2ccc(C)cc2)CC1 | inactive: 119% |
| O=C(Nc1ccccc1)c1cccc2c(=O)c3c([nH]c12)CCCC3 | inactive: 70% |
| Cc1cccc(-n2c(SCC(N)=O)nc3c(oc4ccccc43)c2=O)c1 | inactive: 81% |
| CCOc1ccccc1NC(=O)C1CCN(S(=O)(=O)c2c(C)noc2/C=C/c2ccc(C)cc2)CC1 | inactive: 90% |
| COC(=O)c1ccc(Nc2ncnc3c2nc2n3CCCC2)cc1 | inactive: 119% |
| CCOc1ccc(C(=O)NCCn2cc(SCC(=O)NCCc3ccc(OC)c(OC)c3)c3ccccc32)cc1 | inactive: 78% |

| Structure (SMILES) | survival |
| --- | --- |
| Cc1ccc(NC(=O)Cn2c(-c3ccc4c(c3)OCO4)cn(-c3ccccc3)c2=O)cc1C | inactive: 74% |
| CC1CCCCN1C(=O)c1ccc(S(=O)(=O)NCc2cccnc2)cc1 (centres undefined) | inactive: 95% |
| CCC1CN(C(=O)N2CCC(C(=O)NCc3ccc(OC)cc3OC)CC2)c2cc(C)ccc2O1 (centres undefined) | inactive: 79% |
| Cc1cccc(NC(=O)Cn2cc(CO)c3ccccc32)c1 | inactive: 75% |
| COCCn1c(SCC(=O)c2cc(C)ccc2C)nc2cc(C(=O)NC3CCCC3)ccc2c1=O | inactive: 81% |
| Cc1cc(C)cc(NC(=O)c2cc(S(=O)(=O)N3CCCCCC3)cn2C)c1 | inactive: 85% |
| O=C(Nc1ccccc1NC(=O)c1cccs1)c1cccs1 | inactive: 74% |
| CCN(CC)CCN(C(=O)c1ccco1)c1nc2ccc(Cl)cc2s1 | inactive: 66% |
| Cn1c(SCc2ccc(F)cc2)nc2ccc(C(=O)NCc3ccc(F)cc3)cc21 | inactive: 63% |
| Cc1nn(CC(=O)NC2CC2)c(=O)c2cc3ccccc3n12 | inactive: 91% |
| Cc1ccc(-n2nc3c(N4CCC(C(=O)NC(C)C)CC4)nnc(C)c3c2C)cc1 | inactive: 100% |
| CCC(Sc1nc(N)cc(=O)[nH]1)C(=O)Nc1ccccc1C#N (centres undefined) | inactive: 79% |
| Cc1ccccc1OCC(=O)OCc1cc(=O)n2ccsc2n1 | inactive: 84% |
| Cc1ccc2cc3cc(C(=O)Nc4ccc(F)cc4Cl)oc3nc2c1 | inactive: 71% |
| CCN(CC)S(=O)(=O)c1ccc2c(c1)N(CC(=O)N1CCN(c3cccc(C(F)(F)F)c3)CC1)C(=O)CO2 | inactive: 68% |
| O=C(NC1CCSC1=O)C1CCCCC1 (centres undefined) | inactive: 98% |
| CCOc1ccc(-c2nc(SC(C(C)=O)C(=O)N(C)C)c3c(=O)n(C)c(=O)n(C)c3n2)cc1 (centres undefined) | inactive: 77% |
| CCc1ccc(NC(=O)c2ccc3c(c2)nnn3CC)cc1 | active: -4% |
| CCn1c(C(=O)NCc2cccc(Br)c2)cc2oc3ccccc3c21 | inactive: 50% |
| COC(=O)c1ccc(NC(=O)c2c(NCc3ccc(C)o3)sc3c2CCCC3)cc1 | inactive: 84% |
